According to article PMC10629813:
Results are given in words; binding and its absence hold for the method and conditions named. Binding seen in cells or lysates may run through a third protein. Some binding calls cover weakened binding; strength is not graded here. For some of these results: Where a sequence is shown, tags or fusion partners need not be part of it.

Amino acid sequences for entries named in this document (tags omitted).
UniProt Q13263: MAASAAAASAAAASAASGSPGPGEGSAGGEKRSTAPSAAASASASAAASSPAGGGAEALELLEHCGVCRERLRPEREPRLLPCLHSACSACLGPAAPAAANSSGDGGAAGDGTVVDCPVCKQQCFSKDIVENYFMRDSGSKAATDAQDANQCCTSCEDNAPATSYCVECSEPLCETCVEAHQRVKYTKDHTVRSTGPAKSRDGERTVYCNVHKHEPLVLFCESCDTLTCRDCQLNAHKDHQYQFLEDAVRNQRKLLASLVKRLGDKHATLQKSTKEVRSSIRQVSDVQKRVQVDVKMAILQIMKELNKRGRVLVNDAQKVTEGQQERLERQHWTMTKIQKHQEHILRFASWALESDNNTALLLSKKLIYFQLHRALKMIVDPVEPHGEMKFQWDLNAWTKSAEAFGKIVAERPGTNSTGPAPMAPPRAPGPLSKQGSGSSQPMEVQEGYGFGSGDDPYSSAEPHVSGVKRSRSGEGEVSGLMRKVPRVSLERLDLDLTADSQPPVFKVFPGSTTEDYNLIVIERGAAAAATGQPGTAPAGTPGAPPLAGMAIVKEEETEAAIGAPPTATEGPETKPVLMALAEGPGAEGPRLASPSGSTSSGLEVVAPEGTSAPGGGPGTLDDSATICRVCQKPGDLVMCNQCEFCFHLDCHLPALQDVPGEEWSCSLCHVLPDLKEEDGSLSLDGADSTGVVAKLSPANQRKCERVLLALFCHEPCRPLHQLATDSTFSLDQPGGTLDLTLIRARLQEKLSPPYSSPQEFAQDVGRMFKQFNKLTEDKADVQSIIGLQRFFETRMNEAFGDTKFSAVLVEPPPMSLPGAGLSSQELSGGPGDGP

Legend:
[1] = target: T1, ZMYM2 (endogenous, U2OS cells) (human (endogenous in U2OS)) (UniProt Q9UBW7); test: co-IP; IP with ZMYM2 or ZMYM3 antibody or control IgG from U2OS cells, immunoblot; NEM added to the extracts
T1 sequence: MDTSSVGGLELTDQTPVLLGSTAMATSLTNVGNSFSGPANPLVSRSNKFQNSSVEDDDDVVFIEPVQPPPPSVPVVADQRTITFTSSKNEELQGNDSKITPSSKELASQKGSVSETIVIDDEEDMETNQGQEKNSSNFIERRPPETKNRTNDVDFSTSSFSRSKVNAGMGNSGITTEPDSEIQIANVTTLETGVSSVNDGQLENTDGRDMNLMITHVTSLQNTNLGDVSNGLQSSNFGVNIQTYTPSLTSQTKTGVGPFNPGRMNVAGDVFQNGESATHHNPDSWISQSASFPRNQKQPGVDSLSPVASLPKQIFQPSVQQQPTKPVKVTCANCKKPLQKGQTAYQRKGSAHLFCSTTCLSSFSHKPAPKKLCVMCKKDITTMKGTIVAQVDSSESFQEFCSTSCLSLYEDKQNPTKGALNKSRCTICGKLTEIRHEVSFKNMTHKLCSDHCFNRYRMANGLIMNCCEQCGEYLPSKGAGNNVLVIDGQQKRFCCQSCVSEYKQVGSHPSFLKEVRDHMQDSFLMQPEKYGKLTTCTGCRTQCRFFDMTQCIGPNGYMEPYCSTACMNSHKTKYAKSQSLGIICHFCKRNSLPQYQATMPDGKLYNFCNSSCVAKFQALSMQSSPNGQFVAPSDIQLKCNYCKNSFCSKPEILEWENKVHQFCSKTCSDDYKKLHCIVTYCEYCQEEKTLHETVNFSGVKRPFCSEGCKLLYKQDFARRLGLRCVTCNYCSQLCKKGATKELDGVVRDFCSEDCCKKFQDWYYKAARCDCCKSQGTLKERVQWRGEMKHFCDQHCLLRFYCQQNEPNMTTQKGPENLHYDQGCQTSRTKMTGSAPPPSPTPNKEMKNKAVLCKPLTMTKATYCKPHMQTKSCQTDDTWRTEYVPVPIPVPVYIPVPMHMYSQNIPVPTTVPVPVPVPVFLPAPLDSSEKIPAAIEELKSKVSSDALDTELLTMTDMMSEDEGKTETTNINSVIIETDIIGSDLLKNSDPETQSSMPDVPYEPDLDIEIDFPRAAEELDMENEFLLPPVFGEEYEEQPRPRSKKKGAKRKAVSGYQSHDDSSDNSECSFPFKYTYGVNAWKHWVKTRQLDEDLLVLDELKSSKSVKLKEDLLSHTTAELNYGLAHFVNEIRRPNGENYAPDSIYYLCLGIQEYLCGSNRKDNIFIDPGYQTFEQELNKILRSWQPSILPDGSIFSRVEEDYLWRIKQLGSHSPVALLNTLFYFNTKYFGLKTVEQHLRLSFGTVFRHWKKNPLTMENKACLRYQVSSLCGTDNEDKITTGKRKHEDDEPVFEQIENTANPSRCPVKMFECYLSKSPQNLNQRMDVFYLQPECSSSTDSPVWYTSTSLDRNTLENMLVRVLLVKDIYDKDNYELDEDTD

[2] = target: T2, ZMYM3 (endogenous, U2OS cells) (human (endogenous in U2OS)) (UniProt Q14202); test: as above
T2 sequence: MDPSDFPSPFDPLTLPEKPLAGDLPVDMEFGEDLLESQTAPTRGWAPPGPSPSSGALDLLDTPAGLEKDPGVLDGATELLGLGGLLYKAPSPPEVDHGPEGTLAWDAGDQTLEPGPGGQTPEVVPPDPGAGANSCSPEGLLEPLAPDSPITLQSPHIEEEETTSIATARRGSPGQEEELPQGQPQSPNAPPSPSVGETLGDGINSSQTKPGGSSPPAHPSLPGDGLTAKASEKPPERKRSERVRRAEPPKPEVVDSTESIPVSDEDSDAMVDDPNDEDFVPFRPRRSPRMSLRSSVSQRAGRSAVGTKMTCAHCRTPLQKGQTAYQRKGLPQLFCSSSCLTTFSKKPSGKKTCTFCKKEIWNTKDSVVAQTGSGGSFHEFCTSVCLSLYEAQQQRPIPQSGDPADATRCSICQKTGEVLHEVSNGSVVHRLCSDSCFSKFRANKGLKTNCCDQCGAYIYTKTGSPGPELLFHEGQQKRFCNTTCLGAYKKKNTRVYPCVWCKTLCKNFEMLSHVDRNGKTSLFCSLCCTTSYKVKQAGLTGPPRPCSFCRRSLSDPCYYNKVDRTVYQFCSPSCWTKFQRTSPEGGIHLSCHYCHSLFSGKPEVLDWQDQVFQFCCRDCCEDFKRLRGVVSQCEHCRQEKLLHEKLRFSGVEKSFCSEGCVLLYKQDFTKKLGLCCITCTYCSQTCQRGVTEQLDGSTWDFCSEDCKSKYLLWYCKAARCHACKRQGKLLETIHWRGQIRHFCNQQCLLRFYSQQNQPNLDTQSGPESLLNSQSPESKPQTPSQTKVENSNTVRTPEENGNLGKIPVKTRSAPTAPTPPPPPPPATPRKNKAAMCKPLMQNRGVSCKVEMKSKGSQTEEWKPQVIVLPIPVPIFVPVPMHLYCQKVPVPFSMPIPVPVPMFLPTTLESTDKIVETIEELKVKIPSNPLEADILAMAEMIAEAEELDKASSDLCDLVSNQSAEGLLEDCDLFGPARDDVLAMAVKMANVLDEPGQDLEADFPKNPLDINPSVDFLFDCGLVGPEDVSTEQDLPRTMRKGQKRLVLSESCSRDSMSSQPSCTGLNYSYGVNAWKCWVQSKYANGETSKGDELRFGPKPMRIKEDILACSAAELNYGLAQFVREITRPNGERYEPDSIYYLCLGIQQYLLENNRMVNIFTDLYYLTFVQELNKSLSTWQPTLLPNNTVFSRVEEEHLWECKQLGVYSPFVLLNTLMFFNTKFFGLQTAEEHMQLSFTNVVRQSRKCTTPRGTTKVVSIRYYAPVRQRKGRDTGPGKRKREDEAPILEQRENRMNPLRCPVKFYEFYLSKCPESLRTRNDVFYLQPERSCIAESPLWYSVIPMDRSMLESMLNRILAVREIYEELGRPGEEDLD

[3] = target: T1, ZMYM2 (endogenous, U2OS cells) (human (endogenous in U2OS)); test: condition: only without NEM (standard conditions, SUMO conjugates not preserved); co-IP; IP with ZMYM2 antibody or control IgG from U2OS cells, immunoblot; standard conditions, no NEM added to the extracts
[4] = target: T3, Myc-tagged ZMYM2 (UniProt Q9UBW7); test: proximity ligation; In situ PLA (Duolink-II) in fixed, permeabilised U2OS cells transfected with Myc-ZMYM2; anti-c-myc (9e10) and anti-KAP1 antibodies; untransfected cells as control
T3 sequence: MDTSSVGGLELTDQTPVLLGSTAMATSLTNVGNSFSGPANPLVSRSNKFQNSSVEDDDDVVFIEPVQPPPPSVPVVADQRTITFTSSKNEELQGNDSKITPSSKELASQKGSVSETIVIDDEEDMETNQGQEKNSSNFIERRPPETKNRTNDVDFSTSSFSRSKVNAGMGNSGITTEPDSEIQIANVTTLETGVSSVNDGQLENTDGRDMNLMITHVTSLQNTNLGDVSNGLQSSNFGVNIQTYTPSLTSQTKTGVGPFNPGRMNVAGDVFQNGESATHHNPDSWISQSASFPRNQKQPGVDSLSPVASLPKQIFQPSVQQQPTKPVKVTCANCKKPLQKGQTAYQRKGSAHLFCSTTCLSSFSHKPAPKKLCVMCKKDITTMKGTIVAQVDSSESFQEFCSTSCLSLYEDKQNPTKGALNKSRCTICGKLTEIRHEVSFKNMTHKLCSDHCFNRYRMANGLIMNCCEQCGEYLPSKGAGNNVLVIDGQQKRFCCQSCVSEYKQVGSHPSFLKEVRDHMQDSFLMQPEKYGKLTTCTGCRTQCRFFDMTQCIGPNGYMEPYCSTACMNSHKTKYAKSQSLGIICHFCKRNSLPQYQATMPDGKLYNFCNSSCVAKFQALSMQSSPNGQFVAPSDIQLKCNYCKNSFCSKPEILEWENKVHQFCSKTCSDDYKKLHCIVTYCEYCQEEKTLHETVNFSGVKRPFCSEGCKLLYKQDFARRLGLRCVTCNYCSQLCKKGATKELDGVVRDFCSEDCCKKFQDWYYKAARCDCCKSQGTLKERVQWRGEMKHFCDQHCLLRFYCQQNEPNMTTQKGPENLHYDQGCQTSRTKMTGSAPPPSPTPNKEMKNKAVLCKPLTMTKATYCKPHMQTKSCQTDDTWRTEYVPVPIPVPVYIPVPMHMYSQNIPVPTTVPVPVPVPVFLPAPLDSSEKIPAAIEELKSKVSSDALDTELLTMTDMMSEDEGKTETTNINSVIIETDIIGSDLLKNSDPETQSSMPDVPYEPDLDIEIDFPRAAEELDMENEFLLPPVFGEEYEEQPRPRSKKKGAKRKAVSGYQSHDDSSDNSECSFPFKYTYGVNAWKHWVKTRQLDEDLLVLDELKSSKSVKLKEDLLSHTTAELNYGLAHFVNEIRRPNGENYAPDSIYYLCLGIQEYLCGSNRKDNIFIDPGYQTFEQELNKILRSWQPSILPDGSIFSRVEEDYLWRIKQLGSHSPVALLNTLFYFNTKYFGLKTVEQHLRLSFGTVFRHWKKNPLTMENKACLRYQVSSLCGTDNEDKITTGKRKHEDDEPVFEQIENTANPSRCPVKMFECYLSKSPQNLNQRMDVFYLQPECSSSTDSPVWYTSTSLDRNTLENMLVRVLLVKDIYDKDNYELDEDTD

- binding [1]: binds
- binding [2]: binds
- binding [3]: no binding
- binding [4]: binds
Substance: TRIM28 (endogenous, U2OS cells) (from UniProt Q13263 1-835)
